Experimental data reported in PubChem BioAssay AID488895 (Broad Institute, 2010).
Hit rate of the full screen: of about 340,000 compounds, about 120 (0.035%) were called active. The shares of active, inactive and inconclusive entries below differ from those in the screen.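 How the source made its calls: active means mean replicate inhibition at least 50% and at least half of replicates individually reaching 50%; inconclusive means only one of the two criteria met; inactive means neither criterion met.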

assay: E. coli Tat export inhibitors, primary screen, MC4100, TorA-mCherry reporter, fluorescence, single point (AID 488895); conditions: at 10 µM, active compounds read high;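 further: exported cargo escapes ClpAP degradation while cytoplasmic cargo is degraded and loses fluorescence; 0% = median of neutral control wells and 100% = median of NaSCN control wells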

Compound	inhibition
O=C(COC(=O)/C=C/c1ccc(F)cc1)Nc1nnc(-c2ccccc2)o1	inconclusive: 33.9%
Cc1cc(C(F)F)n2nc(C(=O)Nc3ccc(S(=O)(=O)NC45CC6CC(CC(C6)C4)C5)cc3)nc2n1	inactive: 10.1%
CO/N=C/c1ccc(Sc2ccccc2)c([N+](=O)[O-])c1	inconclusive: 36.7%
COc1ccc2[nH]c3c(=O)n(CCN4CCOCC4)cnc3c2c1	inconclusive: 27.1%
COc1ccc(C)cc1S(=O)(=O)N(C)CC(=O)N1CCC(C(N)=O)CC1	inconclusive: 28.4%
O=c1[nH]c2ccc(S(=O)(=O)N3CCCCC3)cc2s1	inconclusive: 30.6%
CC(C)CC(C(=O)O)N1C(=O)C2C3CC(C2C1=O)C1C(c2ccccc2)c2sc(=O)[nH]c2SC31 (stereo not drawn)	inactive: -7.7%
O=C(NCc1ccc(F)cc1)C1CCCN(S(=O)(=O)c2cccc3nonc23)C1 (stereo not drawn)	inactive: -4.24%
N#C/C(=N\Nc1ccc(Cl)cc1)C(N)=S	inactive: 7.14%
CC1(C)CC(NC(=O)c2ccc(-c3ccc([N+](=O)[O-])cc3)o2)CC(C)(C)N1	inconclusive: 27.8%
Cc1ccccc1NC(=S)N1CCN(Cc2ccc3c(c2)OCO3)CC1	inconclusive: 28.4%
CC(/C=N/NC(=O)c1nnn(-c2nonc2N)c1C(C)C)=C\c1ccccc1	inconclusive: 45.5%
O=C(CSc1nnc(-c2ccccc2)n1Cc1ccccc1)NNC(=O)c1ccccc1O	inactive: -4.9%
O=C1CC(c2cc(-c3ccccc3)no2)C1	inconclusive: 28.6%
Cc1cccc(N(CC(=O)NC(C)(C)C)C(=O)CCC(=O)Nc2nccs2)c1	inconclusive: 23.7%
O=C(NNC(=S)NC(=O)c1ccco1)c1ccc(NC(=O)c2ccccc2)cc1	inactive: -8.48%
O=C(NCc1cc([N+](=O)[O-])ccc1O)c1cccnc1Sc1ccccc1Cl	inactive: -8.62%
CC(C)S(=O)(=O)C1=NSC2=NC(=O)/C(=C\c3ccc(-c4cccc(C(=O)O)c4)o3)C(=N)N21	inconclusive: 27.6%
COc1ccc(NC(=O)Cn2nc(C)c3ccccc3c2=O)cc1	inactive: -2.37%
NC1C2CN(c3nc4c(cc3F)c(=O)c(C(=O)O)cn4-c3ccc(F)cc3F)CC12 (stereo not drawn)	active: 109%

Compound	inhibition
Cc1cccc(Cn2c(O)c(N=NC(=S)Nc3ccccc3F)c3ccccc32)c1	inactive: -9.09%
CCN(CC)S(=O)(=O)c1ccc(NC(=S)NC(=O)C2CCC2)cc1	inactive: -3.37%
Cc1ccc(-n2nnnc2-c2cnoc2-c2cccc(F)c2)cc1	inconclusive: 26.1%
Cc1ccc(C)c(NC(=O)CCN2CCc3ccccc3C2)c1	inconclusive: 30.9%
C=CCNC(=O)c1ccccc1NC(=O)Nc1ccccc1	inconclusive: 27.2%
CCCCN(C)CCn1c(=S)[nH]c2ncccc2c1=O	active: 51.4%
CC1C(C#N)=C(N)OC2=C1C(=O)CC(c1ccccc1)C2 (stereo not drawn)	inactive: 4.23%
Cc1ccc2nc(-c3ccccc3O)c(Nc3ccc4c(c3)OCCO4)n2c1	inactive: 14.4%
Cc1c(NC(=O)Nc2ccccc2)cccc1[N+](=O)[O-]	inconclusive: 23.1%
Cc1ccc(C2CC(c3ccccc3)n3ncnc3N2)cc1 (stereo not drawn)	inconclusive: 38.2%
O=C(CSc1ncnc2nc[nH]c12)c1ccc(Cl)cc1	inactive: -0.0304%
CC(=O)c1cn(CC(=O)Nc2ccc(C)cc2)c2ccccc12	inactive: -9.44%
O=C(CCc1nc2cccnc2n1Cc1ccccc1)N1CCOCC1	inconclusive: 28.8%
CC(C)CC(=O)Nc1ccc(C(=O)Nc2cccc(O)c2)cc1	inactive: 7.44%
Cc1ccc[n+](CC(=O)c2cc3ccccc3oc2=O)c1	inconclusive: 26.3%
CN1CCc2c(sc3c2c(=O)n(-c2ccccc2)c2nncn32)C1	inconclusive: 38.8%
COc1ccc(-c2nc(Cn3c(SCc4cccc(F)c4)nc4ccncc43)c(C)o2)cc1OC	inactive: 6.47%
CCCCOc1ccc(C(=O)NNC(=S)NC(=O)CC)cc1	inactive: 1.5%
Cn1c(=NC(=O)CSCC(=O)N2CCCC2)sc2ccccc21	inactive: -2.18%
c1ccc(-c2sc3ccccc3c2-c2ccc(OCCN3CCCCC3)cc2)cc1	inactive: 10.2%

Compound	inhibition
Cc1cn(CC(=O)NCCCn2ccnc2)c(=O)[nH]c1=O	inactive: -5.03%
Cn1cccc1CNCC(O)c1ccccc1 (stereo not drawn)	inconclusive: 25.2%
C#CCNC(=O)C1=C[C@H](c2csc3ccccc23)[C@@H](CCCO)[C@H](OCC)O1	inconclusive: 26.3%
O=C(N/N=C/c1ccc(O)c(O)c1O)/C(=C/c1ccc([N+](=O)[O-])cc1)NC(=O)c1ccccc1	inactive: 7.35%
Cn1nc(-c2ccccn2)nc2c(=O)n(C)c(=O)nc1-2	inactive: -11.4%
CCNc1ccc(S(=O)(=O)N(C)C)cc1[N+](=O)[O-]	inconclusive: 27.1%
O=C(O)c1cccc(Sc2ccc(Br)cc2C(=O)O)c1	inactive: -9.31%
O=C(O)CCCN1C(=O)/C(=C/c2cn(-c3ccccc3)nc2-c2cccs2)SC1=S	inconclusive: 23.6%
O=C(CSc1nccc(=O)[nH]1)c1cc2ccccc2o1	inconclusive: 24.6%
N#Cc1c(N)nc2c(c1-c1ccncc1)CCCCC2	inconclusive: 29.1%
CC(=O)c1ccccc1OCC(O)CN1CCN(C(c2ccccc2)c2ccccc2)CC1 (stereo not drawn)	inconclusive: 26.5%
CCOC(=O)c1c(NC(N)=O)sc(C)c1C	inactive: 4.06%
Cc1ccc(-c2nc(NCc3ccco3)c3ccccc3n2)cc1	inactive: 8.43%
CCn1cc(C(=O)O)c(=O)c2cc(OC)ccc21	inactive: -1.03%
CCOc1ccc(C2Nc3cccc4cccc(c34)N2)cc1OC	inactive: -2.27%
Nc1cc(N)nc(SCc2ccc(Cl)cc2)n1	inconclusive: 27.9%
CCC(c1nnnn1CS(=O)(=O)c1ccc(C)cc1)N1CCN(c2nc3ccccc3s2)CC1 (stereo not drawn)	inactive: 5.61%
CN1CCN(c2c(F)cc3c(=O)c(C(=O)O)cn4c3c2OCN4C)CC1	active: 138%
